Results are given in words; binding and its absence hold for the method and conditions named. Some entries that bind do so weakly or less than the wild type. One block for each binder: values may come before it.
Assays:
[1] = target: T1, Human Fat4(EC1-3) (human) (UniProt Q6V0I7); assay: SEC; gel filtration of the constructs alone or pre-mixed at a 1:1 molar ratio prior to injection on the column; both purified
T1 sequence: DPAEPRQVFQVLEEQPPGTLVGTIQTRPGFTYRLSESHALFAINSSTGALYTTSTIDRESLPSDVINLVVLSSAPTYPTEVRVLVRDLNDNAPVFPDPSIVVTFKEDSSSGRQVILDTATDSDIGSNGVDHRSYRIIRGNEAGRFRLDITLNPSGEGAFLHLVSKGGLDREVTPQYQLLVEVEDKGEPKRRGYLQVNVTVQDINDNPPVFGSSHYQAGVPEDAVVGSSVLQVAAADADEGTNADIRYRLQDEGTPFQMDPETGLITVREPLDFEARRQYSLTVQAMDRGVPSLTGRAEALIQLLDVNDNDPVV

[2] = target: Fat4-mCitrine on HEK293 cells (human) (UniProt Q6V0I7); assay: staining of cells with fluorescent streptavidin tetramers, confocal microscopy; biotinylated Dchs1 construct with Streptavidin-AF647 added to HEK293 Fat4-mCitrine cells, 37 °C for 1 h; low-salt HBS + 1 mM CaCl2 + 1% BSA; only the binder purified
[3] = target: Dachsous1-mCherry on HEK293 cells (human) (UniProt Q96JQ0); assay: staining of cells with fluorescent streptavidin tetramers, confocal microscopy; tetramers of Fat4 with Streptavidin-AF488 added to HEK293 Dachsous1-mCherry cells induced with doxycycline (100 ng/mL, 1–2 days); only the binder purified
[4] = target: T1, Human Fat4(EC1-3) (human); assay: ITC; MicroCal ITC200; Fat4 construct 30 µM in the sample cell, Dchs1 construct 300 µM as titrant; 20 °C; fitted with one set of sites; two independent experiments; both purified
[5] = target: T2, Human Fat4L379R(EC1-4) (human) (UniProt Q6V0I7); assay: as above
T2 sequence: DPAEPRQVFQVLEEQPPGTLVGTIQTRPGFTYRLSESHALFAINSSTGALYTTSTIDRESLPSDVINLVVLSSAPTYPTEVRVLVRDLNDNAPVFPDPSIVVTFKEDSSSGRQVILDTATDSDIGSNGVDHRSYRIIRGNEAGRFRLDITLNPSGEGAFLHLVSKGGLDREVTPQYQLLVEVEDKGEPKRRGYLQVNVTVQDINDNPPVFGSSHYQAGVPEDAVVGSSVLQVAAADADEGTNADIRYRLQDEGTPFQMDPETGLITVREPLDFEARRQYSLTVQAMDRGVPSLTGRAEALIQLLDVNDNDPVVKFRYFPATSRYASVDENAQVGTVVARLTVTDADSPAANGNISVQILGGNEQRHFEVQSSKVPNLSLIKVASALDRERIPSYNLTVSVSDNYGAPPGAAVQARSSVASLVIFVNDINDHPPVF

[6] = target: T3, human Fat4(EC1–4) L379R (human) (UniProt Q6V0I7); assay: condition: 30 µM Fat4 in the cell, 300 µM Dchs1 as titrant; ITC; MicroCal ITC200; Fat4 constructs at 30 µM in the sample cell, Dchs1 constructs at 300 µM as titrants; 20 °C; one set of sites; both purified
T3 sequence: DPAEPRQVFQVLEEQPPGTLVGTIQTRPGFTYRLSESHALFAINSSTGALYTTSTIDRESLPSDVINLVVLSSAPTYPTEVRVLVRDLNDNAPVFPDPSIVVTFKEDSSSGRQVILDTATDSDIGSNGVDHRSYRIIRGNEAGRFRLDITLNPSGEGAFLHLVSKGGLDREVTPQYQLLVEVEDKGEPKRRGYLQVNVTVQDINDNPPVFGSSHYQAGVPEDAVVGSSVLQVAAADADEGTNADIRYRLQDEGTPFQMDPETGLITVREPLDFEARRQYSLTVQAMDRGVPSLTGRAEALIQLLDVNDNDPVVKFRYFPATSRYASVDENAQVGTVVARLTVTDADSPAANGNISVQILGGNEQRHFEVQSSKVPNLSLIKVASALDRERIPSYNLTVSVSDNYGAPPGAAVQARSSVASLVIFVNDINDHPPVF

[7] = target: T1, Human Fat4(EC1-3) (human); assay: as above
[8] = target: T4, Human Fat4(EC1-4) (human) (UniProt Q6V0I7); assay: ITC; MicroCal ITC200; Fat4 construct 30 µM in the sample cell, Dchs1 construct 300 µM as titrant; 20 °C; fitted with one set of sites; two independent experiments; both purified
T4 sequence: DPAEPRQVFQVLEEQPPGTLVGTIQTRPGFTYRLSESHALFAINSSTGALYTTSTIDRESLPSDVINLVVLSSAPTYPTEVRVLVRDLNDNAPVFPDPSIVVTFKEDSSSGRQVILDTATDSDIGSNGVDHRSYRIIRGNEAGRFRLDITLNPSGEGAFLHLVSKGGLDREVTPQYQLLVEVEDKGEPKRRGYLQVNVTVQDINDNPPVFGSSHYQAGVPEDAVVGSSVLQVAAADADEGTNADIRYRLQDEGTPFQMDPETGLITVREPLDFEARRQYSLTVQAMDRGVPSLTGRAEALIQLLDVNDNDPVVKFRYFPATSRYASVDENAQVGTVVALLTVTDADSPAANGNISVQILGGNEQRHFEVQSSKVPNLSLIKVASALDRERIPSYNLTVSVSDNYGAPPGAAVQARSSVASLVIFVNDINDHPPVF

B1: Human Dchs1(EC1-3) (domain or fragment, UniProt Q96JQ0 43-362)
chain: DPQAGSLDLQIDEEQPAGTLIGDISAGLPAGTAAPLMYFISAQEGSGVGTDLAIDEHSGVVRTARVLDREQRDRYRFTAVTPDGATVEVTVRVADINDHAPAFPQARAALQVPEHTAFGTRYPLEPARDADAGRLGTQGYALSGDGAGETFRLETRPGPDGTPVPELVVTGELDRENRSHYMLQLEAYDGGSPPRRAQALLDVTLLDINDHAPAFNQSRYHAVVSESLAPGSPVLQVFASDADAGVNGAVTYEINRRQSEGDGPFSIDAHTGLLQLERPLDFEQRRVHELVVQARDGGAHPELGSAFVTVHVRDANDNQPSM
binding [1]: no binding

B5: human Dchs1(EC1–4) tetramers (C-terminally biotinylated, on Streptavidin-AF647) (domain or fragment, UniProt Q96JQ0 43-472)
chain: DPQAGSLDLQIDEEQPAGTLIGDISAGLPAGTAAPLMYFISAQEGSGVGTDLAIDEHSGVVRTARVLDREQRDRYRFTAVTPDGATVEVTVRVADINDHAPAFPQARAALQVPEHTAFGTRYPLEPARDADAGRLGTQGYALSGDGAGETFRLETRPGPDGTPVPELVVTGELDRENRSHYMLQLEAYDGGSPPRRAQALLDVTLLDINDHAPAFNQSRYHAVVSESLAPGSPVLQVFASDADAGVNGAVTYEINRRQSEGDGPFSIDAHTGLLQLERPLDFEQRRVHELVVQARDGGAHPELGSAFVTVHVRDANDNQPSMTVIFLSADGSPQVSEAAPPGQLVARISVSDPDDGDFAHVNVSLEGGEGHFALSTQDSVIYLVCVARRLDREERDAYNLRVTATDSGSPPLRAEAAFVLHVTDVNDNAPAF
modifications: biotin, C-terminal (biotin acceptor peptide)
binding [2]: binds

B6: human Dchs1(EC1–4) (domain or fragment, UniProt Q96JQ0 43-472)
chain: DPQAGSLDLQIDEEQPAGTLIGDISAGLPAGTAAPLMYFISAQEGSGVGTDLAIDEHSGVVRTARVLDREQRDRYRFTAVTPDGATVEVTVRVADINDHAPAFPQARAALQVPEHTAFGTRYPLEPARDADAGRLGTQGYALSGDGAGETFRLETRPGPDGTPVPELVVTGELDRENRSHYMLQLEAYDGGSPPRRAQALLDVTLLDINDHAPAFNQSRYHAVVSESLAPGSPVLQVFASDADAGVNGAVTYEINRRQSEGDGPFSIDAHTGLLQLERPLDFEQRRVHELVVQARDGGAHPELGSAFVTVHVRDANDNQPSMTVIFLSADGSPQVSEAAPPGQLVARISVSDPDDGDFAHVNVSLEGGEGHFALSTQDSVIYLVCVARRLDREERDAYNLRVTATDSGSPPLRAEAAFVLHVTDVNDNAPAF
binding [6]: no binding
binding [7]: no binding

B7: Human Dchs1(EC1-4) R297A (domain or fragment)
chain: DPQAGSLDLQIDEEQPAGTLIGDISAGLPAGTAAPLMYFISAQEGSGVGTDLAIDEHSGVVRTARVLDREQRDRYRFTAVTPDGATVEVTVRVADINDHAPAFPQARAALQVPEHTAFGTRYPLEPARDADAGRLGTQGYALSGDGAGETFRLETRPGPDGTPVPELVVTGELDRENRSHYMLQLEAYDGGSPPRRAQALLDVTLLDINDHAPAFNQSRYHAVVSESLAPGSPVLQVFASDADAGVNGAVTYEINRAQSEGDGPFSIDAHTGLLQLERPLDFEQRRVHELVVQARDGGAHPELGSAFVTVHVRDANDNQPSMTVIFLSADGSPQVSEAAPPGQLVARISVSDPDDGDFAHVNVSLEGGEGHFALSTQDSVIYLVCVARRLDREERDAYNLRVTATDSGSPPLRAEAAFVLHVTDVNDNAPAF
notes: human Dachsous1 (Dchs1), EC1-EC4, aa43-472, with R297A; also called Dchs1R297A(EC1-4); Dchs1R297A
binding [8]: binds weakly

B9: recombinant Fat4^L379R tetramers (domain or fragment, UniProt Q6V0I7 43-475)
chain: DPAEPRQVFQVLEEQPPGTLVGTIQTRPGFTYRLSESHALFAINSSTGALYTTSTIDRESLPSDVINLVVLSSAPTYPTEVRVLVRDLNDNAPVFPDPSIVVTFKEDSSSGRQVILDTATDSDIGSNGVDHRSYRIIRGNEAGRFRLDITLNPSGEGAFLHLVSKGGLDREVTPQYQLLVEVEDKGEPKRRGYLQVNVTVQDINDNPPVFGSSHYQAGVPEDAVVGSSVLQVAAADADEGTNADIRYRLQDEGTPFQMDPETGLITVREPLDFEARRQYSLTVQAMDRGVPSLTGRAEALIQLLDVNDNDPVVKFRYFPATSRYASVDENAQVGTVVARLTVTDADSPAANGNISVQILGGNEQRHFEVQSSKVPNLSLIKVASALDRERIPSYNLTVSVSDNYGAPPGAAVQARSSVASLVIFVNDINDHPPVF
modifications: biotin, C-terminal (biotin acceptor peptide)
binding [3]: no binding

Now from value to binder, other results behind:

binding [2]: binds
B2: human Dchs1(EC1–3) used to stain Fat4 cells (domain or fragment, UniProt Q96JQ0 43-362)
chain: DPQAGSLDLQIDEEQPAGTLIGDISAGLPAGTAAPLMYFISAQEGSGVGTDLAIDEHSGVVRTARVLDREQRDRYRFTAVTPDGATVEVTVRVADINDHAPAFPQARAALQVPEHTAFGTRYPLEPARDADAGRLGTQGYALSGDGAGETFRLETRPGPDGTPVPELVVTGELDRENRSHYMLQLEAYDGGSPPRRAQALLDVTLLDINDHAPAFNQSRYHAVVSESLAPGSPVLQVFASDADAGVNGAVTYEINRRQSEGDGPFSIDAHTGLLQLERPLDFEQRRVHELVVQARDGGAHPELGSAFVTVHVRDANDNQPSM

binding [3]: no binding
B3: human Fat4(EC1–3) tetramers (biotinylated, on Streptavidin-AF488) (domain or fragment, UniProt Q6V0I7 43-353)
chain: DPAEPRQVFQVLEEQPPGTLVGTIQTRPGFTYRLSESHALFAINSSTGALYTTSTIDRESLPSDVINLVVLSSAPTYPTEVRVLVRDLNDNAPVFPDPSIVVTFKEDSSSGRQVILDTATDSDIGSNGVDHRSYRIIRGNEAGRFRLDITLNPSGEGAFLHLVSKGGLDREVTPQYQLLVEVEDKGEPKRRGYLQVNVTVQDINDNPPVFGSSHYQAGVPEDAVVGSSVLQVAAADADEGTNADIRYRLQDEGTPFQMDPETGLITVREPLDFEARRQYSLTVQAMDRGVPSLTGRAEALIQLLDVNDNDPVV
modifications: biotin, C-terminal (biotin acceptor peptide)

binding [1]: no binding
B4: Human Dchs1(EC1-4) (domain or fragment, UniProt Q96JQ0 43-472)
chain: DPQAGSLDLQIDEEQPAGTLIGDISAGLPAGTAAPLMYFISAQEGSGVGTDLAIDEHSGVVRTARVLDREQRDRYRFTAVTPDGATVEVTVRVADINDHAPAFPQARAALQVPEHTAFGTRYPLEPARDADAGRLGTQGYALSGDGAGETFRLETRPGPDGTPVPELVVTGELDRENRSHYMLQLEAYDGGSPPRRAQALLDVTLLDINDHAPAFNQSRYHAVVSESLAPGSPVLQVFASDADAGVNGAVTYEINRRQSEGDGPFSIDAHTGLLQLERPLDFEQRRVHELVVQARDGGAHPELGSAFVTVHVRDANDNQPSMTVIFLSADGSPQVSEAAPPGQLVARISVSDPDDGDFAHVNVSLEGGEGHFALSTQDSVIYLVCVARRLDREERDAYNLRVTATDSGSPPLRAEAAFVLHVTDVNDNAPAF
binding [4]: no binding (tested: 300 µM titrant into 30 µM in the cell)
binding [5]: no binding (tested: 300 µM titrant into 30 µM in the cell)

binding [3]: binds
B8: human Fat4(EC1–4) tetramers (biotinylated, on Streptavidin-AF488) (domain or fragment, UniProt Q6V0I7 43-475)
chain: DPAEPRQVFQVLEEQPPGTLVGTIQTRPGFTYRLSESHALFAINSSTGALYTTSTIDRESLPSDVINLVVLSSAPTYPTEVRVLVRDLNDNAPVFPDPSIVVTFKEDSSSGRQVILDTATDSDIGSNGVDHRSYRIIRGNEAGRFRLDITLNPSGEGAFLHLVSKGGLDREVTPQYQLLVEVEDKGEPKRRGYLQVNVTVQDINDNPPVFGSSHYQAGVPEDAVVGSSVLQVAAADADEGTNADIRYRLQDEGTPFQMDPETGLITVREPLDFEARRQYSLTVQAMDRGVPSLTGRAEALIQLLDVNDNDPVVKFRYFPATSRYASVDENAQVGTVVALLTVTDADSPAANGNISVQILGGNEQRHFEVQSSKVPNLSLIKVASALDRERIPSYNLTVSVSDNYGAPPGAAVQARSSVASLVIFVNDINDHPPVF
modifications: biotin, C-terminal (biotin acceptor peptide)

Source: article PMC9935876, “Structure of the planar cell polarity cadherins Fat4 and Dachsous1” (Nature Communications, 2023)
